# In the supplement of paper PMC11741623:
# This is one part of the list. Interaction screen of human proteins with wild-type SARS-CoV-2 proteins by split-DHFR complementation in yeast, 1 µg/mL methotrexate. Value = fitness of the pair (three or more lineages) minus that of the viral protein without a human partner, on a scale set by negative (0) and fused positive (1) controls, mean of up to three cultures; higher = more likely to interact. Active = false discovery rate below 0.05 (one-sided t-test) in at least one culture. Nearly all pairs are not hits, and differences among them are mostly noise (correlation between cultures about 0.3); most hits were seen in one culture only. Human sequences are the Swiss-Prot entries looked up by gene name; the clone may be another isoform. NSP2 values were corrected by the authors for a growth advantage. Listed are human proteins with a hit and a random twelfth of the others.
# B1: ABLIM1, O14639 (protein)
# chain: MPAFLGLKCLGKLCSSEKSKVTSSERTSARGSNRKRLIVEDRRVSGTSFTAHRRATITHLLYLCPKDYCPRGRVCNSVDPFVAHPQDPHHPSEKPVIHCHKCGEPCKGEVLRVQTKHFHIKCFTCKVCGCDLAQGGFFIKNGEYLCTLDYQRMYGTRCHGCGEFVEGEVVTALGKTYHPNCFACTICKRPFPPGDRVTFNGRDCLCQLCAQPMSSSPKETTFSSNCAGCGRDIKNGQALLALDKQWHLGCFKCKSCGKVLTGEYISKDGAPYCEKDYQGLFGVKCEACHQFITGKVLEAGDKHYHPSCARCSRCNQMFTEGEEMYLQGSTVWHPDCKQSTKTEEKLRPTRTSSESIYSRPGSSIPGSPGHTIYAKVDNEILDYKDLAAIPKVKAIYDIERPDLITYEPFYTSGYDDKQERQSLGESPRTLSPTPSAEGYQDVRDRMIHRSTSQGSINSPVYSRHSYTPTTSRSPQHFHRPGNEPSSGRNSPLPYRPDSRPLTPTYAQAPKHFHVPDQGINIYRKPPIYKQHAALAAQSKSSEDIIKFSKFPAAQAPDPSETPKIETDHWPGPPSFAVVGPDMKRRSSGREEDDEELLRRRQLQEEQLMKLNSGLGQLILKEEMEKESRERSSLLASRYDSPINSASHIPSSKTASLPGYGRNGLHRPVSTDFAQYNSYGDVSGGVRDYQTLPDGHMPAMRMDRGVSMPNMLEPKIFPYEMLMVTNRGRNKILREVDRTRLERHLAPEVFREIFGMSIQEFDRLPLWRRNDMKKKAKLF
# B2: NRBP2, Q9NSY0 (protein)
# chain: MAAPEPAPRRAREREREREDESEDESDILEESPCGRWQKRREQVNQGNMPGLQSTFLAMDTEEGVEVVWNELHFGDRKAFAAHEEKIQTVFEQLVLVDHPNIVKLHKYWLDTSEACARVIFITEYVSSGSLKQFLKKTKKNHKAMNARAWKRWCTQILSALSFLHACSPPIIHGNLTSDTIFIQHNGLIKIGSVWHRIFSNALPDDLRSPIRAEREELRNLHFFPPEYGEVADGTAVDIFSFGMCALEMAVLEIQTNGDTRVTEEAIARARHSLSDPNMREFILCCLARDPARRPSAHSLLFHRVLFEVHSLKLLAAHCFIQHQYLMPENVVEEKTKAMDLHAVLAELPRPRRPPLQWRYSEVSFMELDKFLEDVRNGIYPLMNFAATRPLGLPRVLAPPPEEVQKAKTPTPEPFDSETRKVIQMQCNLERSEDKARWHLTLLLVLEDRLHRQLTYDLLPTDSAQDLASELVHYGFLHEDDRMKLAAFLESTFLKYRGTQA
# B3: ADORA2B, P29275 (protein)
# chain: MLLETQDALYVALELVIAALSVAGNVLVCAAVGTANTLQTPTNYFLVSLAAADVAVGLFAIPFAITISLGFCTDFYGCLFLACFVLVLTQSSIFSLLAVAVDRYLAICVPLRYKSLVTGTRARGVIAVLWVLAFGIGLTPFLGWNSKDSATNNCTEPWDGTTNESCCLVKCLFENVVPMSYMVYFNFFGCVLPPLLIMLVIYIKIFLVACRQLQRTELMDHSRTTLQREIHAAKSLAMIVGIFALCWLPVHAVNCVTLFQPAQGKNKPKWAMNMAILLSHANSVVNPIVYAYRNRDFRYTFHKIISRYLLCQADVKSGNGQAGVQPALGVGL
# Target: SARS-CoV-2 E
# Test: yeast fitness gain over the viral ORF with no human partner (scaled fitness); higher = more likely to interact
# Description: (§1)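 Split mouse DHFR complementation in pooled diploid yeast: human ORFeome clones carry one fragment and viral ORFs the other; barcoded lineages compete in 1 µg/mL methotrexate and fitness is read by barcode sequencing in up to three cultures.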
row,Binder,yeast fitness gain
1,B1,inactive: 0.0638
2,B2,inactive: -0.0714
3,B3,inactive: 0.0557

# Target: SARS-CoV-2 M
# Test: as above
# Description: as §1
row,Binder,yeast fitness gain
1,B1,inactive: 0.0409
2,B2,inactive: 0.0453
3,B3,inactive: -0.0186

# Target: SARS-CoV-2 NSP1
# Test: as above
# Description: as §1
row,Binder,yeast fitness gain
1,B1,inactive: -0.00766
2,B2,inactive: -0.214
3,B3,inactive: -0.0149

# Target: SARS-CoV-2 NSP10
# Test: as above
# Description: as §1
row,Binder,yeast fitness gain
1,B1,inactive: -0.0557
2,B2,inactive: 0.0328
3,B3,inactive: 0.0466

# Target: SARS-CoV-2 NSP12
# Test: as above
# Description: as §1
row,Binder,yeast fitness gain
1,B1,inactive: 0.00131
2,B2,inactive: 0.0421
3,B3,inactive: 0.0375

# Target: SARS-CoV-2 NSP13
# Test: as above
# Description: as §1
row,Binder,yeast fitness gain
1,B1,inactive: 0.0161
2,B2,inactive: -0.0859
3,B3,inactive: 0.028

# Target: SARS-CoV-2 NSP14
# Test: as above
# Description: as §1
row,Binder,yeast fitness gain
1,B1,inactive: 0.0267
2,B3,inactive: -0.334

# Target: SARS-CoV-2 NSP15
# Test: as above
# Description: as §1
row,Binder,yeast fitness gain
1,B1,inactive: 0.00865
2,B2,inactive: 0.12
3,B3,inactive: 0.0222

# Target: SARS-CoV-2 NSP16
# Test: as above
# Description: as §1
row,Binder,yeast fitness gain
1,B1,inactive: 0.0755
2,B3,inactive: 0.0209

# Target: SARS-CoV-2 NSP2
# Test: as above
# Description: as §1
row,Binder,yeast fitness gain
1,B1,inactive: -0.112
2,B2,inactive: -0.176
3,B3,inactive: -0.183

# Target: SARS-CoV-2 NSP4
# Test: as above
# Description: as §1
row,Binder,yeast fitness gain
1,B1,inactive: -0.0261
2,B3,inactive: -0.536

# Target: SARS-CoV-2 NSP5
# Test: as above
# Description: as §1
row,Binder,yeast fitness gain
1,B1,inactive: -0.0433
2,B2,inactive: 0.000896
3,B3,inactive: -0.0333

# Target: SARS-CoV-2 NSP6
# Test: as above
# Description: as §1
row,Binder,yeast fitness gain
1,B1,inactive: 0.0035
2,B2,inactive: -0.0741
3,B3,inactive: 0.0376

# Target: SARS-CoV-2 NSP7
# Test: as above
# Description: as §1
row,Binder,yeast fitness gain
1,B1,inactive: -0.00796
2,B2,inactive: -0.00991
3,B3,inactive: 0.0757

# Target: SARS-CoV-2 NSP8
# Test: as above
# Description: as §1
row,Binder,yeast fitness gain
1,B1,inactive: 0.04
2,B2,inactive: 0.00825
3,B3,inactive: -0.0702

# Target: SARS-CoV-2 NSP9
# Test: as above
# Description: as §1
row,Binder,yeast fitness gain
1,B1,inactive: 0.0467
2,B2,inactive: -0.571
3,B3,inactive: 0.0383

# Target: SARS-CoV-2 ORF10
# Test: as above
# Description: as §1
row,Binder,yeast fitness gain
1,B1,inactive: 0.0191
2,B2,inactive: -0.155
3,B3,inactive: 0.00558

# Target: SARS-CoV-2 ORF3A
# Test: as above
# Description: as §1
row,Binder,yeast fitness gain
1,B1,inactive: 0.0551
2,B2,inactive: -0.141
3,B3,inactive: 0.0253

# Target: SARS-CoV-2 ORF3B
# Test: as above
# Description: as §1
row,Binder,yeast fitness gain
1,B1,inactive: 0.0285
2,B2,inactive: 0.0472
3,B3,inactive: -0.0324

# Target: SARS-CoV-2 ORF6
# Test: as above
# Description: as §1
row,Binder,yeast fitness gain
1,B1,inactive: -0.015
2,B2,inactive: -0.0272
3,B3,inactive: 0.0175

# Target: SARS-CoV-2 ORF7A
# Test: as above
# Description: as §1
row,Binder,yeast fitness gain
1,B1,inactive: -0.0182
2,B2,inactive: 0.0375
3,B3,inactive: -0.0103

# Target: SARS-CoV-2 ORF7B
# Test: as above
# Description: as §1
row,Binder,yeast fitness gain
1,B1,inactive: 0.0425
2,B2,inactive: -0.0667
3,B3,inactive: -0.00919

# Target: SARS-CoV-2 ORF8
# Test: as above
# Description: as §1
row,Binder,yeast fitness gain
1,B1,inactive: 0.0308
2,B2,inactive: -0.0719
3,B3,inactive: 0.0168

# Target: SARS-CoV-2 ORF9B
# Test: as above
# Description: as §1
row,Binder,yeast fitness gain
1,B1,inactive: -0.0186
2,B2,inactive: -0.013
3,B3,inactive: 0.0502

# Target: SARS-CoV-2 ORF9Bwu (the 73-codon ORF)
# Test: as above
# Description: as §1
row,Binder,yeast fitness gain
1,B1,inactive: 0.0698
2,B2,inactive: -0.0424
3,B3,inactive: 0.0219

# Target: SARS-CoV-2 S
# Test: as above
# Description: as §1
row,Binder,yeast fitness gain
1,B1,inactive: 0.00156
2,B2,inactive: -0.0525
3,B3,inactive: 0.0143

# Target: SARS-CoV-2 N
# Test: as above
# Description: as §1
row,Binder,yeast fitness gain
1,B3,inactive: -0.124
